Reference: PubChem BioAssay AID1508623 (National Center for Advancing Translational Sciences (NCATS), 2021)
Several values for one entry are separate records, joined by “and”; a condition that tells them apart may be missing. Equal values may be shown once. Among all 48,000 compounds or so, about 450 (0.94%) were called active. Inconclusive results, whose numbers are uncertain, are shown with a selection of clear calls. The call rests on the fitted dose curve; in most records, active means well fitted inhibition curve with a large enough effect; inconclusive means small, poorly fitted or top-dose-only effect; inactive means no such curve, though single readings can be large or run the other way. Potencies of inconclusive entries are doubtful fits and often do not repeat.

test: Primary qHTS for Identification of Small Molecule Inhibitors of Huntingtin Promoter Activity; conditions: HEK293 HTT promoter firefly luciferase reporter (activity 0% = vehicle and -100% = no light), 24 h; activity change, negative = inhibition: at 57.5 µM (top of the series); further: nearly all actives have a fitted effect of over 50% in size
Method in brief: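 HEK293 Fluc reporter, 2,500 cells/well, 24 h pre-culture; cpds up to 57.5 uM final, 24 h 37 degrees C; Dual-Glo, 10 min RT; normalized vehicle = 0%, zero RLU = -100%.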
Potency means the concentration at half of the fitted maximal effect; tags describe the fitted curve by direction and shape.

| SMILES | Potency | activity change, negative = inhibition |
| --- | --- | --- |
| CCOC(=O)c1c(NC(=O)CS(=O)(=O)c2ccc(C)cc2)sc2c1CCC(C)C2 (configuration not stated) | inconclusive: 35.5 µM [inhibitor, partial curve, poor fit] | – |
| COc1ccc(CNC(=O)CCc2cn(Cc3cc(C)ccc3C)c3ccccc23)cc1OC | inconclusive: 35.5 µM [inhibitor, single point] | – |
| COc1ccc(CNC(=O)Cn2c(=O)oc3cc(S(=O)(=O)N4CCCCCC4)ccc32)cc1 | inconclusive: 8.91 µM [inhibitor, partial curve, poor fit] | – |
| COc1ccc(CCNC(=O)c2ccc3c(c2)N(Cc2ccc(C)cc2)CCS3)cc1OC | inconclusive: 20 µM [inhibitor, partial curve, poor fit] | – |
| Cc1cc(N2CCN(C)CC2)nc2ccc(NC(=O)Nc3ccccc3Br)cc12 | – | inactive: -11.9% |
| CCOc1ccc(S(=O)(=O)N(CC(=O)Nc2cccnc2)c2ccccc2)cc1 | inconclusive: 39.8 µM [inhibitor, single point] | – |
| CCOC(=O)c1cccc(NC(=O)CC(c2cc(OC)c(OC)c(OC)c2)N2Cc3ccccc3C2=O)c1 (configuration not stated) | – | inactive: -27.6% |
| CCn1c(=NC(=O)c2ccc(S(=O)(=O)N3CCCCC3)cc2)sc2cccc(OC)c21 | inconclusive: 7.08 µM [inhibitor, partial curve, poor fit] | – |
| CCc1nn2c(-c3ccccc3OC)ccnc2c1-c1ccc(F)cc1 | inconclusive: 35.5 µM [inhibitor, partial curve, poor fit] | – |
| CCOC(=O)C1CCN(c2c(C(=O)c3ccc(OCC)cc3)cnc3ccc(OC)cc23)CC1 | inconclusive: 39.8 µM [inhibitor, partial curve, poor fit] | – |
| CCN(c1ccccc1)S(=O)(=O)c1ccc2[nH]cc(C(=O)NC3CCCCC3)c(=O)c2c1 | inconclusive: 35.5 µM [inhibitor, single point] | – |
| Cc1c(Cl)cccc1NC(=O)CC(c1cccs1)N1Cc2ccccc2C1=O (configuration not stated) | inconclusive: 39.8 µM [inhibitor, single point] | – |
| COc1cccc(NC(=O)CSc2cc(=O)n(C)c3ccc(Cl)cc23)c1 | inconclusive: 39.8 µM [inhibitor, single point] | – |
| CCCCNC(=O)C1CCN(C(=O)N2CC(C)Oc3ccc(Cl)cc32)CC1 (configuration not stated) | inconclusive: 22.4 µM [inhibitor, partial curve] | – |
| Cc1cccc(C(=O)N2CCc3cc(CNC(=O)c4ccnn4C)ccc32)c1 | inconclusive: 39.8 µM [inhibitor, single point] | – |
| CCOc1ccccc1NC(=O)Cc1coc2c(C)c(C)ccc12 | inconclusive: 14.1 µM [inhibitor, partial curve] | – |
| CCOc1ccccc1NC(=O)CN1C(=O)COc2ccc(S(=O)(=O)N3CCCCCC3)cc21 | inconclusive: 2.51 µM [inhibitor, single point] | – |
| CCOc1ccc(C(=O)c2cn(CC(=O)Nc3ccc(F)c(F)c3)c3cc4c(cc3c2=O)OCCO4)cc1 | inconclusive: 25.1 µM [inhibitor, partial curve, poor fit] | – |
| CCOc1ccccc1C(=O)Nc1ccc2nc3c(c(Nc4ccc(OC)c(OC)c4)c2c1)CCCC3 | inconclusive: 31.6 µM [inhibitor, single point] | – |

| SMILES | Potency | activity change, negative = inhibition |
| --- | --- | --- |
| Cc1cc(Nc2cccc(Cl)c2)nc2ccc(NC(=O)c3cccc(N(C)C)c3)cc12 | – | inactive: 2.14% |
| CCOc1ccccc1C1C(C(=O)Nc2ccccc2)=C(C)Nc2c(C(=O)Nc3ccc(F)cc3)cnn21 (configuration not stated) | inconclusive: 39.8 µM [inhibitor, single point] | – |
| Cc1ccc(NC(=O)Cn2cc(C(=O)c3ccco3)c3ccccc32)cc1 | inconclusive: 15.8 µM [inhibitor, partial curve, poor fit] | – |
| CCOc1ccc(-c2cccc(NS(=O)(=O)c3ccccc3C(F)(F)F)c2)nn1 | inconclusive: 31.6 µM [inhibitor, single point] | – |
| Cc1ccc(S(=O)(=O)NCC(Nc2cccc(Cl)c2)c2ccccc2)cc1 (configuration not stated) | active: 25.1 µM | – |
| CCn1c(C(=O)N2CCCC(C(=O)N3CCN(c4ccccc4)CC3)C2)cc2sccc21 (configuration not stated) | inconclusive: 28.2 µM [inhibitor, partial curve, poor fit] | – |
| CCCCSCCCNC(=O)c1c[nH]c2ccc(S(=O)(=O)Nc3cccc(OC)c3)cc2c1=O | inconclusive: 17.8 µM [inhibitor, partial curve, poor fit] | – |
| COc1ccccc1CN1C(=O)C(=O)c2cccc(C)c21 | – | inactive: -13.6% |
| COc1ccc(-n2ccnc(NCCc3ccc(Cl)cc3)c2=O)cc1OC | inconclusive: 14.1 µM [inhibitor, partial curve] | – |
| COc1ccc(NC(=O)Nc2cc(-c3cn4cccnc4n3)ccc2OC)cc1 | inconclusive: 39.8 µM [inhibitor, single point] | – |
| CCc1cccc(C)c1Nc1c(-c2cccs2)nc2nc(C)cc(C)n12 | inconclusive: 39.8 µM [inhibitor, single point] | – |
| Cc1ccc(NC(=O)Cn2c(=O)oc3cc(S(=O)(=O)N4CCCCC4)ccc32)c(C)c1 | inconclusive: 11.2 µM [inhibitor, partial curve, poor fit] | – |
| Cc1ccc(CNc2ncnc3onc(C)c23)cc1 | inconclusive: 12.6 µM [inhibitor, partial curve, poor fit] | – |
| CCCOc1ccc(C2c3c(-c4ccccc4O)n[nH]c3C(=O)N2Cc2cccnc2)cc1 (configuration not stated) | inconclusive: 28.2 µM [inhibitor, partial curve, poor fit] | – |
| CCc1ccccc1NC(=O)CSc1nnc(COc2ccccc2Cl)o1 | inconclusive: 28.2 µM [inhibitor, single point] | – |
| COCc1nc2ccccc2n1Cc1cccc(C)c1 | – | inactive: 14.6% |
| CCn1c(=N)c(C(=O)NCC2CCCO2)cc2c(=O)n3cc(C)ccc3nc21 (configuration not stated) | – | inactive: -1.4% |
| O=S(=O)(NCC(c1ccccc1)N1CCc2ccccc21)c1ccccc1 (configuration not stated) | inconclusive: 12.6 µM [inhibitor, partial curve] | – |
| COc1ccc(-c2nc3ccccc3s2)cc1NC(=O)c1cccc([N+](=O)[O-])c1C | – | inactive: 71% |

| SMILES | Potency | activity change, negative = inhibition |
| --- | --- | --- |
| COc1cc(C(=O)N2CCC(c3nc4ccccc4s3)CC2)cc(OC)c1OC | inconclusive: 31.6 µM [inhibitor, partial curve, poor fit] | – |
| Cc1ccc(S(=O)(=O)N2CCN(Cc3ccc4c(c3)OCO4)CC2)cc1 | inconclusive: 39.8 µM [inhibitor, single point] | – |
| CCc1ccc(-c2cc(C)no2)cc1S(=O)(=O)Nc1cc(OC)c(OC)c(OC)c1 | inconclusive: 15.8 µM [inhibitor, partial curve, poor fit] | – |
| COc1ccc(C(=O)NCCn2cc(SCC(=O)Nc3ccc(F)cc3)c3ccccc32)cc1 | inconclusive: 22.4 µM [inhibitor, partial curve, poor fit] | – |
| CNC(=O)c1cc(Oc2ccc(NC(=O)Nc3ccc(Cl)c(C(F)(F)F)c3)cc2)ccn1 | inconclusive: 4.85 µM [inhibitor, full curve] and inconclusive: 25.1 µM [inhibitor, single point] | – |
| Cc1nc(-c2ccc(S(=O)(=O)NCc3ccc(OC(C)C)cc3)cc2)co1 | inconclusive: 39.8 µM [inhibitor, single point] | – |
| Cc1nn2c(=O)cc(COC(=O)C(c3ccccc3)c3ccccc3)nc2s1 | inconclusive: 8.91 µM [inhibitor, full curve, poor fit] | – |
| Cc1ccc2c(c1)N(C(=O)N1CCC(C(=O)NCc3cccs3)CC1)CC(C)O2 (configuration not stated) | inconclusive: 39.8 µM [inhibitor, single point] | – |
| COc1ccc(CCNC(=O)CCCn2c(=O)c3ccccc3n(CC(=O)Nc3ccc(C)cc3Cl)c2=O)cc1OC | inconclusive: 28.2 µM [inhibitor, single point] | – |
| Cc1cccc(N(CC(=O)NCCSc2ccc(Cl)cc2)S(C)(=O)=O)c1C | inconclusive: 31.6 µM [inhibitor, partial curve, poor fit] | – |
| Cc1ccc(NC(=O)C2CCN(C(=O)c3cnn(-c4ccccc4)c3-n3cccc3)CC2)cc1C | inconclusive: 28.2 µM [inhibitor, partial curve] | – |
| O=C(CSc1oc(-c2ccc(F)cc2)nc1S(=O)(=O)c1ccc(Cl)cc1)c1ccccc1 | inconclusive: 25.1 µM [inhibitor, partial curve, poor fit] | – |
| O=C(c1ccc2c(c1)N(Cc1cccc(Cl)c1)C(=O)c1ccccc1S2(=O)=O)N1CCCCCC1 | inconclusive: 31.6 µM [inhibitor, single point] | – |
| CCc1ccc(CNc2ncnc3onc(-c4ccc(Cl)cc4)c23)cc1 | inconclusive: 39.8 µM [inhibitor, single point] | – |
| COc1ccc(N2CCN(C(CNC(=O)c3cccc(OC)c3)c3cccnc3)CC2)cc1 (configuration not stated) | inconclusive: 20 µM [inhibitor, partial curve, poor fit] | – |
| CC(CC(=O)NCc1ccc(Cl)cc1Cl)CC1=NS(=O)(=O)c2ccccc2N1 (configuration not stated) | inconclusive: 35.5 µM [inhibitor, partial curve, poor fit] | – |
| COc1ccc(CCNC(=O)c2cc(=O)c3c(C)cc(C)cc3o2)cc1OC | inconclusive: 2.51 µM [inhibitor, full curve, poor fit] | – |
| CCOC(=O)c1ccc(NC(=O)Cn2cc(C(=O)c3cccs3)c3ccccc32)cc1 | inconclusive: 28.2 µM [inhibitor, single point] | – |
| COc1cc2nc(Nc3ccc(C)c(C)c3)nc(N)c2cc1OC | – | inactive: -13.8% |
